Experimental data published in the supplement of paper PMC10126150.
Values marked as one replicate rest on one cluster of the flow cell; about a third of the high ones do not repeat.

Tested on: ATP
Assay: switch fluorescence ratio, 500 uM ATP over buffer (Cy3 cluster intensity, sum of 5 cycles each) (fold (ratio)); higher = stronger signal-on switching upon ATP binding; sequences stand for … in TCGTCGGCAGCGTCAGATGTGTATAAGAGACAGTTTTTTTTTTTTTTTTTTTTTTTTT…TC
Conditions: aptamer strand: ATP DNA aptamer (quencher-CACCTGGGGGAGTATTGCGGAGGAAGG + anchor), 100 nM annealed; ATP concentration: 500 uM; one replicate
How it was run: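 Imaging in selection buffer was followed by imaging after 15 min with 500 uM ATP at 22 °C, for Cy3-labelled switching-strand clusters annealed to 100 nM quencher-labelled ATP aptamer on a modified Illumina MiSeq flow-cell. Five of these buffer/ATP cycles ran, separated by NaOH stripping and re-annealing. The fluorescence ratio per cluster is summed target-cycle over summed buffer-cycle Cy3 intensity, averaged per switch-domain sequence; clusters outside 100-1000 RFU were removed.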
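Note: ATP exposure 15 min at 22 °C before imaging.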

Row | Sequence | switch fluorescence ratio
1 | ATCAACGCCG | 1.09
2 | CATCAACACT | 1.03
3 | ATATAAGTT | 1.01
4 | CACACTCCCG | 1.25
5 | ATAGAGTGGC | 0.986
6 | CGAATCGTTC | 1
7 | CCGTATTCGG | 1.05
8 | TAAATGCAAT | 1.1
9 | ACATACCACG | 1.37
10 | CTGGCTGTT | 0.957
11 | AAAGGGCCGG | 1.01
12 | GGGGGTCTAG | 0.948
13 | TGTGGGCCTA | 0.98
14 | TCAAACACTC | 1.05
15 | CGGTAAAACG | 0.92
16 | TTTATGACTA | 1.01
17 | GATTGCTGCG | 1.05
18 | GTGATGGCCC | 1.05
19 | GATAAAAGAC | 1.02
20 | CGTATATTCT | 1.05
21 | TGTACCCCTC | 1.01
22 | ATGTGGCTTT | 0.963
23 | TGTGTGATGT | 0.956
24 | TCCCACGTCC | 1.15
25 | TGGCTTCGTC | 1
26 | GACGTAAGAG | 1.38

Row | Sequence | switch fluorescence ratio
27 | GGCGTGAGGA | 1.02
28 | ATTGTCCCGG | 0.968
29 | TGGAATGCT | 1.06
30 | TTATAAGCCC | 1.04
31 | AGTTTATATG | 1.02
32 | ATCCTGGTTG | 0.979
33 | AAGGTCTACG | 0.984
34 | AAAACCATTT | 1.03
35 | ACTCCTCCGC | 1.44
36 | CGCATGGCAA | 1.23
37 | CATTAGGCGA | 1.07
38 | CATTGCTTAC | 2.17
39 | GCCGGTACGA | 1.01
40 | TGCTTAGATT | 0.987
41 | CACCACTTTA | 1.04
42 | TACAGGGGCG | 1.06
43 | CATACGATTG | 0.996
44 | AGTCCGGTAC | 2
45 | CGTATGGTCA | 1.05
46 | CTACTGCGAC | 1.47
47 | AGCCTCGATA | 0.987
48 | TAGTTGGTGT | 1.03
49 | AAGCTCATAG | 1.02
50 | TTCGGATAGC | 1.01
51 | ATCGTTCAAG | 0.995
52 | AAAAAGTCAG | 1.03

Row | Sequence | switch fluorescence ratio
53 | TCCCTGTCG | 1.01
54 | TGTGTACTTC | 1.03
55 | GACTCCCGCT | 2.14
56 | AGGGGTTACA | 1.03
57 | GCAGTTGTGG | 0.977
58 | AAGAGAGAGT | 1.04
59 | AGAAGTGAAG | 1.03
60 | ACGAAGAGAA | 0.984
61 | CACTTAGGTA | 1.05
62 | TCGTATGGGA | 0.96
63 | AGTGAGTGT | 1.01
64 | CGTTCAAATA | 0.985
65 | ATACAGGTTG | 1.14
66 | TGAAGTACGT | 1.13
67 | ATGTGCGGTC | 0.967
68 | ACACGGAGGC | 0.976
69 | CACCTGCGGC | 1.04
70 | CAAACAAATA | 1.02
71 | CGTGACTTTC | 1.04
72 | CTAGACGCTG | 1.02
73 | TTATTTAGTA | 1.04
74 | AACTACAC | 1.25
75 | ACGGGTCCTG | 1.02
76 | TTTAGCCGTT | 1.03
77 | TTGTCCGCTG | 1.18
78 | GTTTTCTGAC | 0.991

Row | Sequence | switch fluorescence ratio
79 | GAGGTCTGA | 0.961
80 | GAGGGGGAGT | 1.01
81 | ATCGCTTTGT | 0.974
82 | GTTGTTTAAA | 1.01
83 | TTCCCCGAA | 1.12
84 | CCAGGATCCT | 1.01
85 | ATAGAGGCT | 0.965
86 | AACTACATTA | 1.06
87 | TGAAGAACTC | 1.01
88 | ATATTAGACC | 0.973
89 | AATCATGCCC | 1.05
90 | ACTCTTCTGT | 1.01
91 | ACTTGTACAA | 1.1
92 | AAAAATCCGC | 1.45
93 | TTGGCCCGTA | 1.06
94 | TCTCCTAATG | 1.11
95 | GGGCTGTATT | 0.993
96 | CGCGAAGCAC | 1.03
97 | CCACCCTATC | 1.88
98 | AGGGCTGAAA | 1
99 | ACAGGATTG | 0.955
100 | AGCATAATCC | 1.85
101 | CGTTAGGGCT | 0.991
102 | CTCCCTATAT | 3.7
103 | ATAGTCAGCC | 1.01
104 | AAGGGGTATG | 1.02

Row | Sequence | switch fluorescence ratio
105 | AGCTTGTTGT | 1.02
106 | TATCTGGGG | 0.985
107 | AACGAGGGGC | 0.958
108 | GGTGTGGCCC | 0.985
109 | AGGTTACTAA | 1.02
110 | TGTCATACGG | 0.975
111 | TGAAAATTGT | 0.944
112 | GAGAGTGTTG | 0.968
113 | GAGTCTCACT | 0.984
114 | ACGATTTCCG | 0.938
115 | CGAAGGGAC | 1.06
116 | TTAGGTAATG | 0.997
117 | AACTAAATTC | 1.01
118 | AAGGGCCACA | 1
119 | AGTAGGCGTC | 1.06
120 | GTTGAGGC | 0.914
121 | AGCTTGTTTC | 1.02
122 | GGGCGTATTA | 0.997
123 | GTGAATGCTA | 0.982
124 | ATCTAGGATC | 0.984
125 | CAATAGGAGT | 1
126 | TGCTGTCC | 1.02
127 | GCATTCGCTC | 1.09
128 | TGCACCTGTG | 0.997
129 | AGACTCCCGT | 1.08
130 | GAGAGGTGCC | 1

Row | Sequence | switch fluorescence ratio
131 | GGCGCCGGTC | 0.953
132 | ACATCTAGCA | 1.01
133 | GTTCTAGGA | 1.02
134 | GCCAGGTGGT | 3.14
135 | GCGATGTTGG | 0.994
136 | CGACTAT | 1.01
137 | ATGACAGTTT | 1.04
138 | CCCATCTCAC | 1.05
139 | GATTGCCGCT | 0.96
140 | GCATAGCTTT | 1
141 | CGTTGGTTTA | 0.996
142 | TAACTGAGGG | 0.987
143 | TCTGTGTGGA | 1.02
144 | CAGGTCAACC | 0.971
145 | TCGGGGAAAA | 0.947
146 | AGTACGCTGT | 1.02
147 | TAAGCGCACA | 1.05
148 | TCAGCATATT | 1.01
149 | GCCGACTGAA | 0.977
150 | GTGAACGTGG | 1.01
151 | CTGGTATTCC | 1.02
152 | ACAACAGCTT | 1.01
153 | CGTGGATAG | 1.02
154 | ACTTGTTTTG | 1.01
